Laboratory results published in PubChem BioAssay AID1347417 (National Center for Advancing Translational Sciences (NCATS), 2020).
Among all 120,000 compounds or so, about 5,300 (4.4%) were called active. This list was built around the results that the source calls inconclusive (neither active nor inactive); the mix of calls is not that of the screen. Calls come from the whole dose curve; as a rule, active = well fitted inhibition curve with a large enough effect; inconclusive = small, poorly fitted or top-dose-only effect; inactive = no such curve, though single readings can be large or run the other way. Potencies of inconclusive entries are doubtful fits and often do not repeat.

Test: qHTS Primary assay for Inhibitors of Plasmodium falciparum Dd2 growth in vitro; note: nearly all actives have a fitted effect of over 65% in size;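 for activity, negative = inhibition: plate controls were DMSO vehicle for no effect and reference drug for full effect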
Settings: P. falciparum Dd2 growth, SYBR Green, 72 h; activity, negative = inhibition: at 28.9 µM (top of the series) unless noted; series mostly up to 28.9 µM
In short: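 Readout: SYBR Green fluorescence, 485 nm excitation, 535 nm emission, after ~16 h lysis at 37C. Before that, Dd2-infected red cells (2.5% hematocrit) grew 72 h with compound, 29 uM top final concentration.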
Potency is the fitted concentration of half-maximal effect; tags give direction and shape of the fitted curve.

SMILES | Potency | activity, negative = inhibition
CC(C(=O)N(C)C)N1CCc2onc(C(c3ccccc3)c3ccccc3)c2C1 (configuration not stated) | inconclusive: 11.2 µM [inhibitor, single point] | 
Cc1cccc(N2CCN(S(=O)(=O)c3c(C)nc4scc(C)n4c3=O)CC2C)c1 (configuration not stated) |  | inactive: 50.6% [at 0.594 µM]
COCCn1nnnc1C1CC2(CCOCC2)C(=O)N1Cc1ccc(Cl)cc1 (configuration not stated) | inactive | 
Cc1oc(-c2ccc(Cl)cc2)nc1CN1C(=O)CN=C(c2ccccc2)c2ccccc21 | inactive | 
Cc1cccc(CN(C)C2CCCc3ccccc32)c1 (configuration not stated) | inconclusive: 20 µM [inhibitor, single point] | 
O=C(CN1Cc2nc(Nc3ccc(C(F)(F)F)cc3)ccc2OCC1=O)N1CCCC1 | inconclusive: 0.794 µM [inhibitor, partial curve, poor fit] | 
Cc1ncc(CC(=O)N2CCC3(CC2)CC(C(=O)O)N(C)C3)c(=O)[nH]1 (configuration not stated) | inactive | 
CC(C)CN1C(=O)c2cccn2CC1C(=O)NCCN1CCCC1 (configuration not stated) | inactive | 
O=C(c1ccccc1F)N1CCCC2(C1)C(=NC1CCCC1)NC(=O)N2c1cc(F)cc(F)c1 (configuration not stated) | inconclusive: 1 µM [inhibitor, partial curve] | 
CN1CCCN(S(=O)(=O)c2cn(C)cn2)c2ccccc21 | inconclusive: 20 µM [inhibitor, single point] | 
O=C(c1ccncc1)N1CCC(N2C(=O)C3(CCCCC3)C2c2ccncc2)CC1 (configuration not stated) | inactive | 
COc1ccc(-n2cc3c(c2-c2cccc(Br)c2)c(=O)n(C)c(=O)n3C)cc1OC | inconclusive: 10 µM [inhibitor, single point] | 
COc1ccc(-c2cc(C(F)(F)F)nc(SCC(=O)NCc3ccc(F)cc3)n2)cc1 | inconclusive: 17.8 µM [inhibitor, single point] | 
COc1cccc(NC(=O)Cn2c(=O)n(Cc3ccccc3)c(=O)c3c4c(sc32)CN(C(C)=O)CC4)c1 | inconclusive: 10 µM [inhibitor, single point] | 
Cc1cccc(NC(=O)Cn2c(=O)n(Cc3ccc4c(c3)OCO4)c(=O)c3ccccc32)c1 | inconclusive: 10 µM [inhibitor, single point] | 
COc1ncc(-c2ccc3ncn(C4CC4)c(=O)c3n2)cn1 | inconclusive: 7.08 µM [inhibitor, partial curve] | 
CCCCCSc1nnc2c(n1)OC(c1ccc(C)s1)N(C(C)=O)c1ccccc1-2 (configuration not stated) | inconclusive: 17.8 µM [inhibitor, single point] | 
O=C(Cn1ccn2nc(-c3ccc(F)cc3)c(CO)c2c1=O)Nc1ccc(Br)cc1 | inactive | 
Cc1ccccc1NC(=O)Nc1nnc(N(C)Cc2ccccc2)s1 | inconclusive: 11.2 µM [inhibitor, partial curve, poor fit] | 
Cc1c(Cl)cccc1N1CC(c2nc3ccccc3n2Cc2ccccc2F)CC1=O (configuration not stated) | inconclusive: 17.8 µM [inhibitor, single point] | 
CC(C)NC(=O)NC1CC2(CCN(C(=O)Cc3ccc(O)cc3)CC2)c2ccccc21 (configuration not stated) | inconclusive: 7.08 µM [inhibitor, partial curve, poor fit] | 
Cc1noc2c(-c3ccncc3)cc(-c3cccs3)nc12 | inactive | 
O=C(c1ccc(F)cc1)N1C[C@@H]2C[C@H](C1)c1c(-c3cc4ccccc4s3)ccc(=O)n1C2 | inconclusive: 12.6 µM [inhibitor, single point] | 

SMILES | Potency | activity, negative = inhibition
Cc1c(CNCCCc2ccccc2)c(C(=O)O)c(C)n1Cc1ccc(Cl)cc1 | active: 8.91 µM | 
O=C(CCCc1ccccc1)N1CCC(c2nc(C3CCOCC3)no2)C1 (configuration not stated) | inconclusive: 7.94 µM [inhibitor, single point] | 
O=C1N(c2ccccc2)c2ccccc2C12CCN(Cc1cncs1)C2 (configuration not stated) | inconclusive: 11.2 µM [inhibitor, single point] | 
Cc1nc(-c2ccccc2)cc([C@H]2CN3CC[C@H]2C[C@@H]3CNC(=O)c2cccs2)n1 | inconclusive: 2 µM [inhibitor, partial curve, poor fit] | 
CCN1c2cc(C(=O)NCc3cccc(OC)c3OC)ccc2C(=O)N2CCCCC21 (configuration not stated) | inconclusive: 5.62 µM [inhibitor, partial curve, poor fit] | 
O=c1cc2c(nn1Cc1cccc(Br)c1)CCCCC2 | inconclusive: 17.8 µM [inhibitor, single point] | 
O=C(c1cccs1)N1CCN(C(=O)c2nnn3c2COC(c2ccc(Cl)cc2)C3)CC1 (configuration not stated) | inconclusive: 3.98 µM [inhibitor, single point] | 
O=C(c1cc(F)ccc1Cl)N1CCC(n2cnnc2C2CC2)CC1 | inactive | 
CC(C)N1C(=O)[C@@H]2[C@@H](CCN2C(=O)CCCC(=O)O)N(Cc2cccc(F)c2)C1=O | inactive | 
CCCCN1CC(c2nc3ccccc3n2CCCCOc2c(C)cccc2C)CC1=O (configuration not stated) | inconclusive: 17.8 µM [inhibitor, single point] | 
Cc1noc(-c2cn(C3CCN(C(=O)c4cccc(Cl)c4)C3)nn2)n1 (configuration not stated) | inactive | 
C=C[C@H]1CN2CC[C@H]1C[C@@H]2CNC(=O)COc1ccccc1 | inconclusive: 11.2 µM [inhibitor, single point] | 
CCN1CCN(C(=O)c2c(OCC3CC3)cc(=O)n3c2CCCCC3)CC1 | inactive | 
COc1ccccc1CCC(=O)N1CCN(C(=O)c2nnn3c2COC(c2ccccc2)C3)CC1 (configuration not stated) | inconclusive: 2.51 µM [inhibitor, partial curve, poor fit] | 
O=C(N[C@@H]1CCOC[C@H]1Oc1ccccn1)c1ccccc1-c1ncc[nH]1 | inactive | 
CCN(C(=O)c1sc2nc3n(c(=O)c2c1C)CCCCC3)c1ccccc1F | inconclusive: 10 µM [inhibitor, single point] | 
COC(=O)N1CCC2(CC1)CCN(Cc1cccs1)c1ccccc1O2 | inconclusive: 14.1 µM [inhibitor, partial curve, poor fit] | 
CCn1c(=O)c2cc(C(=O)N(C)c3cc(C)ccc3C)sc2c2ccccc21 | inconclusive: 11.2 µM [inhibitor, single point] | 
COCC(=O)NC1CCC12CCN(Cc1cccc(C)c1)CC2 (configuration not stated) | inconclusive: 8.91 µM [inhibitor, single point] | 
COc1ccc(NC(=O)N2CCc3c(sc4c3CCCC4)C2c2ccc(F)cc2)cc1 (configuration not stated) | inconclusive: 17.8 µM [inhibitor, single point] | 
Cn1cc(C(=O)NCc2ccc(F)cc2)c(=O)c2cc(S(=O)(=O)N3CCCCC3)ccc21 | inconclusive: 11.2 µM [inhibitor, single point] | 
O=S(=O)(c1ccccc1Cl)N1CCCC1c1nncn1Cc1ccncc1 (configuration not stated) | inactive | 
CC(C)c1noc(-c2cn(C3CCN(C(=O)c4cccc(F)c4)CC3)nn2)n1 | inactive | 

SMILES | Potency | activity, negative = inhibition
O=C(Cn1c(=O)n(Cc2ccc3c(c2)OCO3)c(=O)c2ccccc21)Nc1cccc(Cl)c1 | inconclusive: 11.2 µM [inhibitor, single point] | 
Cc1c(C(=O)N2CCCC2)oc2c1-c1nn(CC(=O)NCc3cccc(Br)c3)cc1CC2 | inconclusive: 8.91 µM [inhibitor, single point] | 
O=C(c1ccc(C(F)(F)F)cc1)N1CCC2(CC1)CC(c1cccnc1)=NO2 | inconclusive: 2.82 µM [inhibitor, single point] | 
COCC(=O)N[C@H](C)c1c(-c2ccc(F)cc2)noc1C(=O)O | inactive | 
COc1ccc(-c2[nH]nc3ncc(C(=O)N4C[C@@H](C)O[C@@H](C)C4)nc23)c(C)c1 | inconclusive: 31.6 µM [inhibitor, single point] | 
O=C(c1ccccn1)N1CC(Oc2ccc3c(c2)OCO3)C1 |  | inconclusive: -37.3% [inhibitor]
Cc1nnc(SCc2cc(=O)n3c(C)cccc3n2)s1 | inconclusive: 8.91 µM [inhibitor, partial curve, poor fit] | 
COc1ccc(-n2ncc3c(N4CCN(c5cccc(C)c5)C(C)C4)ncnc32)cc1 (configuration not stated) | active: 5.62 µM | 
COCC(=O)NC1CCC12CCN(C(=O)C1CC1)CC2 (configuration not stated) | inactive | 
CCOC(=O)c1c(C)oc2nc(C)nc(NCC3CCN(Cc4ccc(Cl)cc4)CC3)c12 | active: 12.6 µM | 
Cc1cccc(CN2CCCCCCNC(=O)[C@@H]3CCC[C@@H]32)c1 | inconclusive: 2.82 µM [inhibitor, single point] | 
CCN(c1ccccc1)S(=O)(=O)c1nnc(NC(=O)COc2ccc(OC)cc2)s1 | inactive | 
CCOC(=O)c1[nH]c(C)c(CCC(=O)N2CCN(c3ccccc3)CC2)c1C | active: 3.98 µM | 
COC[C@@H]1CN(C(=O)c2cc(C)nn2C)C[C@H]1c1ccncc1 | inactive | 
O=C(O)c1ccccc1C(=O)N1Cc2[nH]cnc2C[C@H]1c1nc(-c2ccncc2)no1 | inactive | 
COc1ccc(-c2nc3n(n2)C(c2ccc(OC)cc2)C(C(=O)Nc2cccnc2)=C(C)N3)cc1 (configuration not stated) | inconclusive: 10 µM [inhibitor, single point] | 
COc1cccc(NCc2nnc(C(=O)N3CCC[C@@H]3c3ccc(Br)cc3)n2Cc2ccccc2)c1 | inconclusive: 7.94 µM [inhibitor, partial curve] | 
O=C(NC1CCCC1)c1c[nH]c2ccc(S(=O)(=O)Nc3cccc(C(F)(F)F)c3)cc2c1=O | inconclusive: 11.2 µM [inhibitor, partial curve] | 
O=C(CC(c1ccccc1)c1ccccc1Cl)N(Cc1cccnc1)C1CC1 (configuration not stated) | active: 12.6 µM | 
CCOc1ccc(N2CC(c3nc(-c4cc(OC)c(OC)c(OC)c4)no3)CC2=O)cc1 (configuration not stated) | inactive | 
O=C1NCN(Cc2ccc(Cl)cc2)C12CCN(Cc1ccc(OC(F)(F)F)cc1)CC2 | inconclusive: 10 µM [inhibitor, single point] | 
